Test results as given in PubChem BioAssay AID1963576 (National Center for Advancing Translational Sciences (NCATS), 2024).
Screen size: about 46,000 compounds; about 60 (0.1%) were called active. Another 3% or so got no clear call; they are omitted. Calls follow the shape of the dose curve; as a rule, active = well fitted inhibition curve with a large enough effect; inconclusive = small, poorly fitted or top-dose-only effect; inactive = no such curve, though single readings can be large or run the other way. The list shows a part of the results.

Test: Primary qHTS assay for Inhibitors of ovarian cancer metastasis using an organotypic tumor microenvironment (TME) model. Also: nearly all actives have a fitted effect of over 65% in size.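 As to activity change, negative = inhibition: plate controls were DMSO wells for no effect and tomatine positive control wells for full effect.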
Settings: SKOV3ip1-GFP adhesion/invasion on 3D omental model, fluorescence; series mostly up to 45.8 µM; activity change, negative = inhibition: at the top concentration
Method in brief: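 A 3D layer of primary human omental fibroblasts, mesothelial cells, fibronectin and collagen I, grown 48 hr, received SKOV3ip1-GFP cells in serum-free medium plus compounds at 0.36-46 umol/L. After 2 hr RT and 16 hr 37 C, fixed adherent GFP cells were counted; normalized to DMSO and tomatine.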

Activity change, negative = inhibition, inactive:
Cc1oc(-c2ccccc2F)nc1CSc1nnc(C)n2c1cc1occc12 8.66%, Cc1ccc(CNC(=O)c2ccc(-c3nc(CS(=O)(=O)c4ccc(C)cc4)c(C)o3)cc2)cc1 3.3%, COc1cc2c(cc1O)CCC1C2CC[C@@]2(C)C1CC[C@@H]2O (some centres undefined) -21.4%, CCc1ccccc1NC(=O)C(=O)NCCc1sc(-c2cccc(F)c2)nc1C 0.329%, Cc1ccc(S(=O)(=O)c2cn(Cc3ccc(F)cc3)c3cc(N4CCCC4)c(F)cc3c2=O)cc1 2.76%, Cc1ccc(S(=O)(=O)N2CCC(n3c(C)nc4cccnc43)CC2)c(C)c1 -0.121%, Cc1[nH]c2ccccc2c1SCCNC(=O)c1ccccc1F -7.88%, CCOC(=O)C1CCCN(C(=O)c2[nH]c3ccccc3c2Sc2ccc(Cl)cc2)C1 (centres undefined) -33.9%, COC(=O)c1ccccc1-n1c(CCC(=O)O)ccc1-c1ccccc1 -2.16%, CC(C)Oc1ccc(CNC(=O)Cn2ncn3nc(-c4cccs4)cc3c2=O)cc1 -5.19%, Cc1ccnc(NS(=O)(=O)c2ccc(NC(=O)c3nc(SC(C)C)ncc3Cl)cc2)n1 -1.25%, COc1ccc(C(=O)NCC(c2ccco2)S(=O)(=O)c2cccs2)cc1OC (centres undefined) -6.84%, COc1ccc(NC(=O)C(CC(C)C)NS(=O)(=O)c2ccc3c(c2)oc(=O)n3C)cc1Cl (centres undefined) -7%, Cc1ccc(S(=O)(=O)c2nc(-c3ccccc3)oc2SCC(=O)NC2CCCCC2)cc1 -10.8%, O=C(Nc1ccc(F)c(Cl)c1)C1CCCN1S(=O)(=O)c1ccc(F)cc1 (centres undefined) 4.23%, COc1cccc(C2Nc3ccccc3-c3nnc(SCc4ccccc4)nc3O2)c1OC (centres undefined) -1.04%, CCOc1ccc(NC(=O)Cn2c(=O)n(Cc3nc(-c4ccccc4)no3)c(=O)c3ccccc32)cc1 35.8%, CCOC(=O)C1=C(CS(=O)(=O)c2ccc(C)c(C)c2)NC(=O)NC1c1ccccc1OCC (centres undefined) 25.2%, CC1CCCN(C(=O)Cn2c(=O)n(CC3CCC(C(=O)NC(C)C)CC3)c(=O)c3sccc32)C1 (centres undefined) -6.41%, Cn1c(-n2cccc2)c(-c2c(-c3ccc(F)cc3)[nH]c3c2c(=O)[nH]c(=O)n3C)c(=O)[nH]c1=O -2.5%, COCCNc1ccc(-c2nc(-c3cccc(C)c3)no2)cc1[N+](=O)[O-] -4.25%, COc1ccc(CCNC(=O)CSCc2nc(-c3ccc(OC)c(OC)c3)oc2C)cc1OC -5.45%, Cn1cc(-c2ccc3ncc(Cc4ccc5ncccc5c4)n3n2)cn1 -14.2%, COc1cccc(OC)c1Cn1nnc2c(=O)[nH]c(C3CCN(C(=O)c4ccccc4)CC3)nc21 6.52%, COc1ccc(-n2ncc3c2ncn2nc(-c4ccc(Cl)cc4Cl)nc32)cc1 2.75%, COc1ccccc1CNC(=O)c1cc2c(=O)n(Cc3cccs3)ccc2nc1C -4.92%, COc1cccc(-c2ccnc3[nH]n(-c4ccccc4)c(=O)c23)c1 -24.7%, CCOC(=O)c1c(NC(=O)c2nc(SC)ncc2Cl)sc(C)c1C 0.627%, CSc1ccc(CCNC(=O)c2ccc3c(c2)nc2n3CCOC2)cc1 -8.87%, CCOc1ccc(CCNC(=O)c2ccc3c(c2)N(Cc2cccc(Cl)c2)C(=O)c2ccccc2S3(=O)=O)cc1OCC -9.55%, CCOC(=O)c1ccc(NC(=O)CN2C(=O)CC(c3ccc(C)c(C)c3)=Nc3ccccc32)cc1 -30.4%, CCOC(=O)N1CCc2c(sc(NCc3sccc3C)c2C(=O)Nc2ccccc2OCC)C1 7.31%, CCN(Cc1ccccc1)C(=O)CCS(=O)(=O)c1ccc2c(c1)oc(=O)n2C 8.58%, COc1ccc2c(c1)c(=O)c(C(=O)c1ccc(Cl)cc1)cn2CC(=O)Nc1ccc2c(c1)OCO2 12.3%, CCOC(=O)c1scc(-c2ccc(C)cc2)c1S(=O)(=O)Nc1ccc(F)c(F)c1 -0.314%, Cn1c(=O)n(CCCc2ccccc2)c(=O)c2c1nc1n2CCN1c1ccccc1 10.8%, CCOc1cc(C2c3c(oc4ccccc4c3=O)C(=O)N2Cc2ccccc2Cl)ccc1O (centres undefined) -8.12%, Cc1sc(NC(=O)COc2ccc(C(C)(C)C)cc2)c(C(=O)OC(C)C)c1C -2.44%, Cc1cc(-c2nc3ccccc3s2)ccc1NC(=O)c1cc(Cl)ccc1Cl 3.46%, COc1ccc(NC(=O)N(Cc2ccco2)C2CCN(C(C)=O)CC2)c(OC)c1 3.5%, COc1ccc(CNC(=O)C2CCN(S(=O)(=O)c3cn(C)cn3)CC2)cc1 -17.6%, Cc1ccc(-c2noc(C3CC(=O)N(c4ccc5c(c4)OCCO5)C3)n2)cc1 (centres undefined) 6.03%, Cc1cc(NC(=O)Nc2ccc(N(C)C)cc2)c2cc(F)cc(F)c2n1 -6.25%, CCOc1ccc(NC(=O)c2cn3c4c(ccc(Cl)c4c2=O)OC(C)C3)cc1 (centres undefined) 2.02%, CCn1cc(C(=O)N2CCN(c3ccccc3)CC2)c(=O)c2cc(S(=O)(=O)N3CCC(C)CC3)ccc21 27.7%, COc1ccc(C2CC(=O)c3c([nH]c(C(=O)OCCOc4ccccc4)c3C)C2)cc1OC (centres undefined) -26.3%, COc1cccc(CNC(=O)c2cccn2-c2nnc(N3CCCC3)s2)c1 -5.82%, COc1cccc(NC(=O)C2CCN(S(=O)(=O)c3cc(-c4noc(C)n4)ccc3C)CC2)c1 -24.5%, COc1cc(-c2noc(-c3cc(C)[nH]n3)n2)cc(OC)c1OC -1.13%, COc1ccc(C2CC(=O)N(CC(=O)Nc3ccc(C(F)(F)F)cc3)c3ccccc3S2)cc1 (centres undefined) 3.64%, COC(=O)c1ccc(OC)c(Cn2c(=O)n(-c3ccc(C)cc3)c(=O)c3c2cnn3C)c1 -5.74%, COc1cc2c(cc1OC)C(c1ccc(F)cc1)N(c1ccc(F)cc1)C(=O)C2 (centres undefined) -3.82%, COc1ccc(-n2c(=O)c3sc4ccccc4c3n(Cc3ccccc3)c2=O)cc1 7.38%, CCN(CC)CCNC(=O)c1ccc2c(c1)N(Cc1ccccc1)C(=O)c1ccccc1S2=O (centres undefined) -6.71%, Cc1ccc2c(CNC3CCC(C)CC3)c(C(=O)O)n(Cc3cccc(F)c3)c2c1 (centres undefined) 1.14%, Cc1cccc(C(=O)N(Cc2nc(-c3ccc(Cl)cc3)no2)C(C)C)c1 -17.1%, Cc1cccc(C)c1NC(=O)CN(C)S(=O)(=O)c1ccc2c(c1)n(C)c(=O)c(=O)n2C -7.59%, CCSc1nc(=O)c2c(n1C)NC(=O)CC2c1ccc(O)cc1OC (centres undefined) -0.164%, CCc1ccc(OCC(=O)NCC(c2ccc(OC)cc2)N2CCOCC2)cc1 (centres undefined) -11.8%, Cn1cc(C(=O)NCc2ccccc2)c(=O)c2cc(S(=O)(=O)N3CCCCCC3)ccc21 2.44%, COc1cccc(CNC(=O)c2c3c(nc4ccccc24)C(=O)N(C2CCCCC2)C3)c1 3.1%, CCc1nn(CC(=O)NC2CC2)c(=O)c2cc3ccccc3n12 18%, O=C(Cn1c(=O)nc(-c2ccccc2)c2cc(Cl)ccc21)NCCCc1ccccc1 -15.9%, Cc1ccccc1Oc1nc2c(c(=O)n(C)c(=O)n2C)n1Cc1ccc(Br)cc1 -6.98%, Cn1c(=O)c2sccc2n2c(CCC(=O)NCc3ccccc3)nnc12 17.7%, COc1ccc(N2CCN(Cc3nc4c(c(=O)[nH]c(=O)n4C)n3Cc3ccccc3)CC2)cc1 13.3%, Cc1ccc2c(c1)nc(SCC(O)c1ccc(Br)cc1)n2C (centres undefined) -1.32%, COC(=O)c1ccc(C(=O)OC)c(NC(=O)c2c(-c3ccccc3)c(-c3ccccc3)nn(C)c2=O)c1 25.4%, Cc1ccc(S(=O)Cc2nc(-c3ccc(C(=O)NC(C)c4ccccc4)cc3)oc2C)cc1 (centres undefined) -3.45%, CC(NC(=O)CSc1n[nH]c(-c2ccccc2)n1)c1nc2ccccc2n1C (centres undefined) -9.85%, COc1cc(OC)c(NC(=O)c2cc(S(=O)(=O)N3CCCC3)cn2C)cc1Cl -0.642%, CCC1CCCCN1C(=O)Cn1c(=O)n(CC2CCC(C(=O)NC)CC2)c(=O)c2sccc21 (centres undefined) 3.33%, COc1cc2c(=O)n(CCC(=O)NCC3CCCO3)c(=O)n(CC(=O)Nc3c(C)cccc3C)c2cc1OC (centres undefined) 2.44%

outcome, inactive:
CCOc1ccc(CCNC(=O)c2cc3sc(CC)cc3n2C)cc1OCC, O=C(NCc1ccccc1Cl)c1cc2cccc3c2n1CCS3, COc1cccc(CNC(=O)c2ccc3c(c2)nc2n3CCC(C)C2)c1OC (centres undefined), COc1ccc(N(CC(=O)N2CCN(c3cccc(OC)c3)CC2)S(=O)(=O)c2c(C)noc2C)cc1, O=C(Cn1c(=O)ccc2cc(S(=O)(=O)N3CCCC3)ccc21)NCc1ccc(F)cc1, CN1C(=O)c2ccccc2Sc2ccc(NC(=O)COc3ccc(Cl)cc3)cc21, COc1cc(OC)c(NC(=O)c2ccc3c(Cl)c4c(nc3c2)CCCC4)cc1Cl, COc1ccc(Cl)cc1NC(=O)CSc1cn(CC(=O)N2CCCC2)c2ccccc12, Cc1ccc(NC(=O)c2ccc(F)c(S(=O)(=O)N3CCc4ccccc4C3)c2)cc1F, Cc1cc(NC(=O)CN2C(=O)CSc3ccc(S(=O)(=O)N(C)C)cc32)ccc1Br, Cc1c(Cl)cccc1NC(=O)NCCOCCn1c(=O)oc2ccccc21, CCc1ccc(N2C(=O)CS(=O)(=O)C23C(=O)N(Cc2ccccc2F)c2ccccc23)cc1 (centres undefined), CCN1CCN(C(=O)c2cnn(-c3cccc(C)c3)c2C2CCN(C(=O)OC(C)(C)C)CC2)CC1, COc1ccc(C(=O)Nc2ccc3nc(SCC(=O)N4CCOCC4)sc3c2)cc1, CC1CCN(c2nc3ccc(C(=O)NCc4ccc(Cl)cc4)cc3s2)CC1, COc1cc(NC(=O)c2cc3nc(-c4ccccc4)cc(-c4ccccc4)n3n2)c(OC)cc1Cl, CC(=O)c1cccc(NC(=O)Cn2c(C)c3cnn(-c4ccccc4)c(=O)c3c2C)c1, Cc1ccc(C)c(CSc2nc3ccncc3n2Cc2nc(-c3ccccc3Cl)oc2C)c1, COc1ccc(Cl)cc1S(=O)(=O)Nc1cccc(-c2ccc(N3CCOCC3)nn2)c1, O=C(Nc1ccc(OC(F)(F)F)cc1)NC1COc2ccccc2C1 (centres undefined), CCCCc1ccc(Nc2ncnc3c2cnn3-c2ccc(C)cc2)cc1
